The results in this text go back to PubChem BioAssay AID488969 (Vanderbilt High Throughput Screening Facility, 2010).

SMILES strings stand for the structures. In all, about 110,000 compounds were measured (“z-score”: median about -0.1, highest 2% from about 2 on). This is one part of the list.

In this assay the target is Metabotropic glutamate receptor 8 (Rattus norvegicus) (UniProt P70579). Kind of assay: rat mGluR8 modulators via GIRK flux, primary screen, cell-based, thallium flux, HTS (AID 488969). The conditions noted are these: HEK293 rat mGluR8, GIRK (G protein-gated inwardly rectifying potassium channel) thallium flux, FluoZin2; at 10 µM; stronger effect = higher value; submaximal glutamate (EC20) added with thallium.
UniProt P70579, sequence (P70579 whole entry, looked up): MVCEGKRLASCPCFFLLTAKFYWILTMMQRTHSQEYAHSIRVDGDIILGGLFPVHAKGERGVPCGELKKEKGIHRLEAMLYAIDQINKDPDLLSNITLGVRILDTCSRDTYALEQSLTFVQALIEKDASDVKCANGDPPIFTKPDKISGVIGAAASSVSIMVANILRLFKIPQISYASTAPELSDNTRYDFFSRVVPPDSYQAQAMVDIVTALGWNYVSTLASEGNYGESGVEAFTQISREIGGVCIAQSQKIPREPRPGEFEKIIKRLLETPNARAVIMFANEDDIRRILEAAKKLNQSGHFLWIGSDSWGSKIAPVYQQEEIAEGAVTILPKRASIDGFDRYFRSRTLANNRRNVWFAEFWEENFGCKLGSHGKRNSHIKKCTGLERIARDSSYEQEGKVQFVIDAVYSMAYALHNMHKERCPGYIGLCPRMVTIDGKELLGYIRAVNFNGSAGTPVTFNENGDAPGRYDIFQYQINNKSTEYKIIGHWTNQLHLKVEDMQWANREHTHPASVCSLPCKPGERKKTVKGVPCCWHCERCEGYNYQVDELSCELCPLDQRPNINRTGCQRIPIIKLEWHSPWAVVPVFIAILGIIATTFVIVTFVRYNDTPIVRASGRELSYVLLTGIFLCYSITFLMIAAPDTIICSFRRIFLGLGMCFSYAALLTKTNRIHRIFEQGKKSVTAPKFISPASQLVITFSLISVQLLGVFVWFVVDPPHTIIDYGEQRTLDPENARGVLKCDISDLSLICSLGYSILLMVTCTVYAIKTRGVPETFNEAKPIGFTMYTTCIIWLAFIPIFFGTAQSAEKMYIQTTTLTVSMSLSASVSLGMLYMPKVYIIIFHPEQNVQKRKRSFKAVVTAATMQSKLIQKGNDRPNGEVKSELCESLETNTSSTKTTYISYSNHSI
`CCCc1[nH]nc2c1C(c1cccnc1)C(C#N)=C(N)O2` (stereo not drawn) registered a z-score of -0.285.

Take `COCCNC(=O)C(c1ccco1)N(C(=O)Cn1nnc2ccccc21)c1ccc(C)cc1C` (stereo not drawn): the z-score is 0.146.

`CCN1C(=O)c2cccc3c(NC(=O)c4ccc(OC)c(OC)c4)ccc1c23` yielded a z-score of -1.48.

`O=C(Nc1ccc(Cl)cc1)N1CCCN(Cc2ccc(F)cc2)C1`: the z-score came to 2.53.

As to `CCOc1cc(C2C(C(=O)c3ccccc3)=C(C(=O)OC)Nc3nnnn32)ccc1O` (stereo not drawn), the z-score is 0.203.

Molecule `CCN(CC)CCOC(=O)c1ccc2c(c1)OCCO2` came in with a z-score of 0.102.

In the case of `Cc1ccc(N2C(=O)CC(n3nc(C)cc3C)C2=O)cc1` (stereo not drawn), the z-score is -0.158.

`COC(=O)c1ccc(CSc2nnc(Nc3ccc(C)cc3)s2)o1` yielded a z-score of -0.123.

`COc1ccc(-c2noc(-c3ccc(Cl)cc3)n2)cc1` yielded a z-score of -0.685.

In turn, `CCn1c(C(=O)N2CCC(C(=O)NCc3cccs3)CC2)cc2sccc21` gave a z-score of 0.364.

The molecule `Cn1cnc2cc(NC(=O)c3ccc(Cl)cc3)ccc21` displayed a z-score of 1.55.

`CC(=O)OCCCN1c2ccccc2Nc2nnc(-c3ccccc3)cc21` had a z-score of -0.13.

`CCC1/C(=N\O)CC(c2ccco2)NC1c1ccco1` (stereo not drawn): the z-score was -0.0574.

`COc1ccc(OC)c(NC(=O)c2ccc(NS(C)(=O)=O)cc2)c1`: the z-score is -0.288.

With `Cn1c(=O)c2cn3c(c2n(C)c1=O)C(c1ccccc1)CC(c1ccccc1)=N3` (stereo not drawn), the z-score is -0.736.

With `O=C(CN1C(=O)c2cccc3cccc1c23)N1CCN(c2ccccc2)CC1`, the z-score was -0.0213.

`Cc1cc(N2CCN(C)CC2)nc2ccc(NC(=O)CCC(=O)NCc3ccco3)cc12`: the z-score is -0.198.

As to `Cc1ccc2nc(SCc3nnc(-c4ccccc4[N+](=O)[O-])o3)c(C#N)cc2c1`, the z-score was -0.113.

Consider `CCOCCN1CCN(C(=O)CN2CCCC2=O)CC1`, for which the z-score was determined as 0.0619.

`CCC(C)Sc1nnc(CNC(=O)C23CC4CC(CC(C4)C2)C3)n1C1CCCCC1` (stereo not drawn): the z-score turned out to be 0.319.

As for `CC(=O)Nc1ccc(S(=O)(=O)N2CCN(Cc3ccccn3)CC2)cc1`, the z-score turned out to be 0.197.

In turn, `CCNCCNC(=O)c1c(O)c2ccccc2n(CC)c1=O` displayed a z-score of -0.289.

`Cn1cc(C(=O)c2ccc(Cl)cc2Cl)cc1C(=O)N/N=C(\N)COc1ccc(Cl)cc1Cl` showed a z-score of 0.13.

Molecule `NC(N)=N/N=C/c1ccc(OCc2ccc(Cl)cc2Cl)cc1` returned a z-score of 0.0763.

On to `Cc1cc(C)c(/C=N/n2c(C)cc(C)c(C#N)c2=O)c(C)c1`, for which the z-score is -0.219.

Molecule `Cc1ccc(NC(=O)c2c(C)noc2C)cc1` displayed a z-score of -0.163.

Molecule `NC(=O)c1c(NC(=O)c2cccnc2Cl)sc2c1CCCC2` registered a z-score of -0.396.

For the molecule `c1ccc(OCCCc2nc(-c3ccccn3)no2)cc1`, the z-score was -0.423.

The molecule `CC(C)OC(=O)CCNc1n[nH]c(=O)[nH]c1=O` yielded a z-score of 0.028.

On to `CCOc1ccc2c(C)cc(=O)oc2c1OCC`, for which the z-score was 0.743.

Molecule `CCOC(=O)c1cc2sccc2n1CC(=O)Nc1ccc(OC)cc1` gave a z-score of -0.165.

`Cc1onc(-c2c(Cl)cccc2Cl)c1C(=O)NCCc1ccc(S(N)(=O)=O)cc1` came in with a z-score of -0.481.

With `N#Cc1cccc(-n2nnnc2-c2ccc3c(c2)OCO3)c1`, the z-score is -0.154.

Molecule `COC(=O)Cc1ccc(NC(=S)NCc2ccccc2Cl)cc1` showed a z-score of -0.159.

Consider `CCN1CCN(C(=S)c2ccc(Cl)cc2)CC1`, for which the z-score is -0.0353.

In the case of `CC1=C(C(=O)OCC2CCCO2)C(c2ccccc2OC(C)C)C2=C(CC(c3ccco3)CC2=O)N1` (stereo not drawn), the z-score is -0.12.

For `O=C(CN1CCN(Cc2ccccc2Cl)C1=O)N1CCCCCC1`, the z-score is -0.349.

On to `CCc1nnc(NC(=O)C2CCCN2C(=O)Nc2ccccc2OC)s1` (stereo not drawn), for which the z-score is -0.336.

Molecule `CCC(=O)c1ccc(N2CCCCCC2)c(F)c1` had a z-score of -0.499.

In turn, `Cc1cccc(OCCn2c(=O)sc3ccccc32)c1` gave a z-score of -0.343.

For the molecule `O=c1c(F)cn(C2CCCO2)c(=O)n1Cc1ccccc1F` (stereo not drawn), the z-score is -0.118.

In the case of `CCOC(=O)C(NS(=O)(=O)c1ccc(C)cc1)(C(F)(F)F)P(=O)(OCC(C)C)OCC(C)C` (stereo not drawn), the z-score was -0.0646.

In turn, `CCCOc1c(OC)cc(Cl)cc1C1NC(=O)NC(C)=C1C(=O)NCc1ccccc1` (stereo not drawn) returned a z-score of -0.431.

`COc1ccccc1C(=O)N1CCN(S(=O)(=O)Cc2ccccc2)CC1` showed a z-score of 0.154.

Molecule `Cc1cccc(OCC(=O)Nc2ccccc2C(F)(F)F)c1` showed a z-score of 0.0733.

Regarding `Cc1c(C(=O)NN)nc2ccccn12`, the z-score is -0.145.

The molecule `O=C(CCOc1ccccc1)NCc1ccccc1` showed a z-score of 0.171.

In the case of `O=C(CCc1ccc(Oc2cc([N+](=O)[O-])cc([N+](=O)[O-])c2)cc1)N1CCCCC1`, the z-score was -0.235.

Molecule `CCN(C(=O)CN1CCCCC1)C1(C)C(=O)c2ccccc2C1=O` showed a z-score of -0.119.

In turn, `O=C(Cc1cccc(C(F)(F)F)c1)NCc1ccc(Cl)cc1Cl` registered a z-score of -0.218.

`COc1ccc(-n2c(Cc3cc(=O)[nH]c(=O)[nH]3)nnc2SCC(=O)Nc2ccccc2)cc1` had a z-score of -0.295.

Molecule `Cc1cc(C)c2c(n1)nn1c(N3CCN(c4ccccc4)CC3)cc(C)nc21` yielded a z-score of -1.2.

Turning to `CCCc1cc(C(=O)N/N=C/c2ccc(C)o2)c2ccccc2n1`, the z-score is -0.00973.

`CCCCCCSc1nsc(N)n1` returned a z-score of -0.0195.

The molecule `COC(=O)c1sc(S(=O)(=O)N2CCN(c3ccccc3)CC2)c(C(=O)OC)c1C` registered a z-score of 0.537.

In turn, `COc1cc(CN2CC(C)CC(C)C2)cc([N+](=O)[O-])c1O` (stereo not drawn) showed a z-score of 0.0599.

Regarding `CCCN(CCC)c1nc2ccccc2n2c(C)nnc12`, the z-score is -2.51.

In the case of `O=S(=O)(c1ccc2ccccc2c1)N1CCN(C2CCN(Cc3ccccc3)CC2)CC1`, the z-score is 0.282.

Consider `COc1ccc(-n2c(C)nc3cc(C(=O)NCc4ccc5c(c4)OCO5)ccc32)cc1`, for which the z-score was -0.347.

Consider `O=C(Nc1ccncc1)C1CC1c1ccccc1` (stereo not drawn), for which the z-score was -0.0243.

As for `CC(C)COc1ccc(C(=O)CCN2CCCCC2)cc1`, the z-score is -0.18.

For the molecule `CCc1nc2ccc(F)cc2c(C(=O)NC2CCCCC2C)c1C` (stereo not drawn), the z-score is 0.0814.

As for `C=CCn1c(-c2ccoc2C)n[nH]c1=S`, the z-score is -0.182.

`CN(C)CC(O)COc1cc2ccccc2cc1C(=O)N1CCCCC1` (stereo not drawn): the z-score amounted to 0.233.

For the molecule `Cc1cc(C)cc(NC2=CC(=O)CC(c3ccco3)C2)c1` (stereo not drawn), the z-score was 0.39.

With `N#C/C(=C\c1ccccc1)C(=O)NC(=O)Oc1ccccc1`, the z-score was -0.263.

`Cc1ccc(Cl)cc1NC(=O)CSC(N)=O`: the z-score was found to be 0.476.

In turn, `CCS(=O)(=O)Nc1ccc(C2=NN(C(=S)Nc3ccccc3)C(c3ccco3)C2)cc1` (stereo not drawn) yielded a z-score of -0.107.

Molecule `C1CN(CC23CC4CC(CC(C4)C2)C3)CCO1` displayed a z-score of -0.225.

As to `COc1ccc(CNc2ccc3cn[nH]c3c2)c(OC)c1OC`, the z-score is -0.128.

`CC(=O)c1c(C)[nH]c(C(=O)OCC(=O)C(C)(C)C)c1C` displayed a z-score of -0.364.

`COc1cccc(N=C2C(=O)N3CCCc4cccc2c43)c1` gave a z-score of -0.13.

Regarding `CCOc1ccc(NC(=O)c2nccnc2CO)cc1`, the z-score was -0.103.

Molecule `CCOC(=O)c1c(C)nc2sc(C(=O)Nc3ccc(OC)cc3)c(N)c2c1-c1ccc(OC)cc1` displayed a z-score of 0.136.

In turn, `COc1ccc(/C=N/NC(=O)CNC(=O)c2ccc3c(c2)OCCO3)cc1OC` came in with a z-score of -0.198.

The molecule `O=C(N/N=C/c1cccs1)c1cc(-c2ccc3ccccc3c2)n[nH]1` returned a z-score of -0.0227.

In the case of `Cc1ccc(-c2noc(CN(C(=O)C(c3ccccc3)c3ccccc3)C(C)C)n2)cc1`, the z-score was -0.159.

In the case of `O=C(N1CCNCC1)N1CCOCC1`, the z-score is 0.0355.

`FC(F)(F)c1cccc(N2CCc3cn[nH]c32)c1` had a z-score of -0.459.

On to `CCOC(=O)C1CCCN(S(=O)(=O)c2cn(C)c(=O)n(C)c2=O)C1` (stereo not drawn), for which the z-score was 0.476.

Molecule `CNc1nc(C)c(C#N)c(-c2ccccc2)c1C(C)=O` had a z-score of -0.525.

As for `COc1cccc(-c2nc(-c3ccccc3)[nH]c(=O)c2C#N)c1`, the z-score was -0.663.

In turn, `CC(C)(Oc1ccc(Cl)cc1)C(=O)N(Cc1ccccc1)c1ccccn1` yielded a z-score of 1.1.

In turn, `CN1C(=O)c2cccc3c(S(=O)(=O)Nc4ccccn4)ccc1c23` yielded a z-score of 0.126.

Consider `CCC(c1nnnn1C(C)(C)C)N1CCN(c2cc(Cl)ccc2C)CC1` (stereo not drawn), for which the z-score was -0.203.

The molecule `CCc1cc2c(SCC(=O)c3ccc(Cl)s3)ncnc2s1` came in with a z-score of -0.124.

Molecule `CC1CC(C)CN(C(=O)C2CCCN(S(=O)(=O)c3cccc4nonc34)C2)C1` (stereo not drawn) gave a z-score of -0.994.

`O=S(=O)(Nc1cccc2c1CCCC2)c1cccc(C(F)(F)F)c1` registered a z-score of -0.417.

`O=C(CSCc1ccccc1)N1CCN(c2ccc(F)cc2)CC1` had a z-score of -0.36.

Turning to `CCCNS(=O)(=O)c1ccc(OCC(=O)Nc2ccccc2F)cc1`, the z-score was -0.0555.

With `CCOC(=O)C1CCN(S(=O)(=O)c2cccc(-c3csc(C)n3)c2)CC1`, the z-score was -0.358.

Consider `c1ccc(Cn2c(-c3cccs3)nc3nc4ccccc4nc32)cc1`, for which the z-score is 1.11.

The molecule `CCOc1c(C#N)c(C#N)c2nc(C)cc(C)n12` displayed a z-score of 0.00345.

`O=C(CSc1ncn(-c2ccccc2)n1)NCc1ccccc1`: the z-score is -0.242.

In turn, `Cc1nnc(SCCn2c(N3CCCCCC3)nc3c2c(=O)[nH]c(=O)n3C)s1` returned a z-score of 0.0833.

The molecule `CCSC1=C(C#N)C(c2ccccc2Cl)C(C(=O)c2cccs2)C(O)(C(F)(F)F)N1` (stereo not drawn) came in with a z-score of -0.464.

As for `Cc1ccc2c(c1Br)/C(=N/N1C(=O)c3ccccc3C1=O)C(=O)N2`, the z-score is -0.999.

`Cn1c(=O)[nH]c(=O)c2c1nc(N(CCO)Cc1ccccc1)n2CCCc1ccccc1` showed a z-score of -0.178.

For `CC(=O)c1ccc(NC2c3ncccc3C(=O)N2Cc2ccc(F)cc2)cc1` (stereo not drawn), the z-score was -0.0325.

For the molecule `O=c1oc2ccccc2c2nccnc12`, the z-score is -0.322.

Molecule `Cc1ccccc1Cn1cc(NC(=O)c2nc3ncccn3n2)cn1` gave a z-score of 2.77.

On to `COc1cc(OC)c(C2=NOC(C(=O)Nc3cc(C)nn3-c3ccccc3)C2)cc1Cl` (stereo not drawn), for which the z-score is -0.258.

`CCCCN(C(=O)Cn1nnc2ccccc21)C(C(=O)NCc1ccco1)c1ccncc1` (stereo not drawn): the z-score was found to be 0.147.

`Cc1ccc(SCC(=O)Nc2ccc(-c3nc4ccccc4[nH]3)cc2)cc1` showed a z-score of -0.486.

`O=C(c1cccs1)N1CCN(Cc2nc3ccccc3c(=O)[nH]2)CC1` came in with a z-score of -0.258.

In the case of `CCN(CC)C(=O)c1cnn(-c2ccccc2)c1NC(=O)c1cccc(F)c1`, the z-score is 0.0315.

With `O=C(Nn1cnc2ccccc2c1=O)c1ccccc1Cl`, the z-score was found to be 0.134.

Turning to `CCc1ccccc1NC(=O)CSc1ncn[nH]1`, the z-score was -0.0941.

For the molecule `CCOc1ccc(/C=C(\C#N)C(=O)Nc2cccnc2)cc1`, the z-score is -0.416.

As to `COc1ccc(C(CCNC(C)c2ccccc2)c2ccc(F)cc2)cc1` (stereo not drawn), the z-score was 1.71.

`Cc1cc(N2CCOCC2)nc(-c2ccccc2O)n1` displayed a z-score of -0.358.

As to `O=C(Cn1c(=O)oc2cc(S(=O)(=O)N3CCCC3)ccc21)N1CCN(C2CCCCC2)CC1`, the z-score is -0.245.

Molecule `O=C(COc1ccccc1Br)NCc1ccco1` gave a z-score of 0.149.
